Article PMC4336329 (PLoS ONE, 2015)
Hit rate of the full screen: of about 310,000 compounds, about 14,000 (4.5%) showed an effect of 50% or more. The effect is printed as a negative number. Some of the results follow.

biological target: human ether-à-go-go-related gene (hERG) potassium channel (human, UniProt Q12809); assay: primary screen, population patch clamp on CHO cells stably expressing hERG
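Also: peak tail current of the secondary pulse compared with the same well before compound.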

Sequence of human ether-à-go-go-related gene (hERG) potassium channel (Q12809 whole entry, looked up): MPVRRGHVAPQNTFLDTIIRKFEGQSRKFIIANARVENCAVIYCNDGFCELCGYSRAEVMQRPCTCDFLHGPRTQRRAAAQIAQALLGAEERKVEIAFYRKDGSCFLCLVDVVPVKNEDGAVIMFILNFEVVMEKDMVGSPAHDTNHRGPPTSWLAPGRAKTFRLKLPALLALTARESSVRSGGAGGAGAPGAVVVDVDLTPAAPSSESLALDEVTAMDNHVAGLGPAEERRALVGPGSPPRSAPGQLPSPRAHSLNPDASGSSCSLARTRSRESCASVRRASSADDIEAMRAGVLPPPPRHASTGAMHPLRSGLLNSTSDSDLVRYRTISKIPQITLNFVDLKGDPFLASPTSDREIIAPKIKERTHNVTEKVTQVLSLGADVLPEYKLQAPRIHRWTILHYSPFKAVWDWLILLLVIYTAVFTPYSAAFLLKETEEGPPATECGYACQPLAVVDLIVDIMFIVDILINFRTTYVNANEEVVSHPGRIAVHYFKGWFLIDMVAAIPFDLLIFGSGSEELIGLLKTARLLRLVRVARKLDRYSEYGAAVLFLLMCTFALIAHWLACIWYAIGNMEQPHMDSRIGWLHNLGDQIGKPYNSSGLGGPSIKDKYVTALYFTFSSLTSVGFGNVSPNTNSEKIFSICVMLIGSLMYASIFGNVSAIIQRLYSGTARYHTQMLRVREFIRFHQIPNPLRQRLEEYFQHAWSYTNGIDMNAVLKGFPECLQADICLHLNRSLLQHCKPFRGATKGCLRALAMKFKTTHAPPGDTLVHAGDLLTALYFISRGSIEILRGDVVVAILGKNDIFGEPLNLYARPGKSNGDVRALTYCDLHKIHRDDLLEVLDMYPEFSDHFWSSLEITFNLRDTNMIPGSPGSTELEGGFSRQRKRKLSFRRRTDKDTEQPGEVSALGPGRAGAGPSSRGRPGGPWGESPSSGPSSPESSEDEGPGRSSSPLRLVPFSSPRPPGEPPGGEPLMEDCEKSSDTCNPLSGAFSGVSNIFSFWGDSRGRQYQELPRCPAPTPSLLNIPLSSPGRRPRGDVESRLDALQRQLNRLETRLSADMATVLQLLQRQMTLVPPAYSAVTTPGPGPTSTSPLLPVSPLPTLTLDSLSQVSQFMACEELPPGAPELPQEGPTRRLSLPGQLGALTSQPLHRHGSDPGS

Row | Structure (SMILES) | hERG current change (%, negative = inhibition) at 10uM
1 | NC(=O)CSc1nnc2sc3ccccc3n12 | -17.5%
2 | CSc1ccccc1OCc1cc(C(=O)NCCN2CCCc3ccccc32)no1 | -3.86%
3 | COc1ccc(C2C3=C(N=C4SCC(=O)N42)c2ccccc2CC3)cc1OC (stereo not drawn) | 3.54%
4 | COc1cc(CNC2CCCC2)c(Br)cc1OCc1ccccc1.Cl | -72.1%
5 | O=S(=O)(Nc1ccc(N2CCCCC2)cc1)c1ccc(F)cc1 | 15.1%
6 | CC12CCC(=O)N1C(C(=O)NCCc1ccc(S(N)(=O)=O)cc1)CS2 (stereo not drawn) | 15.1%
7 | Brc1cccc(-c2nnc(SCc3nc4ccccc4[nH]3)o2)c1 | 1.23%
8 | Nc1nc(SCC(=O)O)[nH]c(=O)c1NC(=O)c1ccco1 | 16.5%
9 | Cc1ccc(COC(=O)c2nn(-c3ccccc3)nc2N)cc1 | 1%
10 | O=C(CNCc1ccncc1)Nc1cc(S(=O)(=O)N2CCCCC2)ccc1Cl | -63.9%
11 | CCOc1ccc2nc(-c3ccc(OC)c(OC)c3)cc(C(=O)O)c2c1 | 21.3%
12 | CCCCC1OC23CCCCC2C(C#N)(C(=N)O3)C1(C#N)C#N (stereo not drawn) | 4.17%
13 | CCCCCCC1CC(=O)NC(=S)N1 (stereo not drawn) | 17.4%
14 | COC(=O)Cn1cnc2sc(C)c(S(=O)(=O)N3CCC(C)CC3)c2c1=O | -6.66%
15 | COc1ccc(C(=O)C(OC(=O)c2ccccc2)c2ccccc2)cc1 (stereo not drawn) | -1.35%
16 | COc1ccc(NC(=O)C2CCCN(S(=O)(=O)c3ccc(Cl)cc3)C2)cc1OC (stereo not drawn) | 6.79%
17 | Cc1ccc(C(=O)NCCCNCCCNC(=O)c2ccc(C)nc2)cn1 | -17.1%
18 | CCCNC(=O)OC[C@H]1O[C@H](CCO/N=C/[C@@H](OC)[C@H](C)/C=C/CC(=O)OC)C=C[C@@H]1Oc1ccc(OC)cc1 | -11.1%
19 | O=C(NCc1ccccn1)C(=O)NCC(c1ccco1)N1CCN(c2ccc(F)cc2)CC1 (stereo not drawn) | -32.9%

Row | Structure (SMILES) | hERG current change (%, negative = inhibition) at 10uM
20 | CCOc1ccccc1N1CCN(C(=O)c2csc(C)c2CC)CC1 | -8.41%
21 | Cc1noc(/C=C/c2ccco2)c1S(=O)(=O)N1CCC(C(=O)Nc2ccc(Cl)cn2)CC1 | -29.3%
22 | CC(C)[C@H](N)c1cn([C@@H](CC(N)=O)C(=O)N2CCNCC2)nn1 | 7.33%
23 | Cc1ccc(CCNC(=O)CCS(=O)(=O)c2cc3c(cc2C)NC(=O)CO3)cc1 | 3.1%
24 | COCCn1c(CCc2ccccc2)n[nH]c1=S | 14.6%
25 | COC(=O)C(NC(=O)c1cccnc1Cl)C(C)C (stereo not drawn) | -13.6%
26 | Cc1ccc(N(CC(=O)N=Nc2c(O)[nH]c3ccccc23)S(C)(=O)=O)c(C)c1 | -27.8%
27 | Cc1ccc(S(=O)(=O)NC(C)(C)CSc2nnc(Nc3ccccc3)s2)cc1 | -1.34%
28 | Cc1noc(C)c1CSc1nnc2ccccn12 | 5.58%
29 | CSc1nc(=S)n(-c2ccccc2)c(C)c1C(C)=O | 11.9%
30 | CCCn1c(NC(=O)CSCC(=O)Nc2cc(C)on2)nc2ccccc21 | 10.8%
31 | CCOCCCNC(=O)c1cc(Sc2ccc(C)cc2)nc2ccccc12 | -19.3%
32 | COc1ccc(-c2nnnn2-c2ccccc2OC)cc1 | -9.02%
33 | CCOC(=O)c1ccc(Nc2nc(N)c3cc(OC)c(OC)cc3n2)cc1 | 1.84%
34 | O=C(NC1CCN(C(=O)Nc2ccc(F)cc2)CC1)c1ccccc1F | -5.82%
35 | COc1ccc(/C=C/C(=O)NCC(c2ccc(F)cc2)N2CCOCC2)cc1OC (stereo not drawn) | 2.15%
36 | Cc1ccc(C(=O)NN(C)c2nc3ccccc3nc2C(F)(F)F)cc1 | -0.286%
37 | Cl.OC(CNCc1cccc(Br)c1)c1ccccc1 (stereo not drawn) | -44%
38 | Cl.NC(N)=NC(N)=Nc1cccc(Cl)c1 | -2.14%

Row | Structure (SMILES) | hERG current change (%, negative = inhibition) at 10uM
39 | CCC1=C2CC[C@H]3C(=O)NC(=O)[C@H]3[C@H]2[C@@]2(Cc3ccccc3)C(=NCC(=O)OC)OC(=O)N2C1=O | 18.7%
40 | CCN(CC)C(=O)CSc1nc2cc3c(cc2c(=O)n1Cc1ccc(OC)cc1)OCO3 | 12.1%
41 | COc1ccccc1CCNC(=O)c1cnn2c(C(F)F)cc(C)nc12 | -33.6%
42 | Nn1c(=O)c2ccccc2n2c(SCc3ccccc3)nnc12 | -37.5%
43 | O=C1Cc2ccccc2C(=O)N1c1ccccc1 | -14.7%
44 | COC(=O)CNC(c1ccccc1)c1cc(Br)ccc1NC(=O)CCN1CCOCC1 (stereo not drawn) | -31.7%
45 | Cc1ccc(NC(=O)C2CCN(C(=O)[C@@H]3Cc4ccccc4CN3)CC2)c(C)c1 | -41.4%
46 | O=C(O)CCC(=O)/C=C/c1ccccc1 | 26.4%
47 | COc1cccc(/C=N/NC(=O)CN2CC(c3ccccc3)CC2=O)c1OC (stereo not drawn) | -10%
48 | CCOC(=O)c1cc(-c2ccco2)nc2c1c(C)nn2-c1cccc(Cl)c1 | 0.799%
49 | O=C(Oc1cccnc1)c1ccc([N+](=O)[O-])cc1Cl | -2.42%
50 | Cl.OCCN(CCO)c1nc(-c2ccccc2)nc2c1oc1ccccc12 | 27.4%
51 | NC(=O)CN1C(=O)C(O)(CC(=O)c2ccccc2O)c2ccccc21 (stereo not drawn) | 4.9%
52 | Cc1c(NC(=O)Nc2ccc(C#N)cc2)c(=O)n(-c2ccccc2)n1C | -2.41%
53 | COC(=O)C1CC(O)CN1S(=O)(=O)c1cccs1 (stereo not drawn) | 21.2%
54 | CCc1ccc(NC2=NCCCS2)cc1 | -9.94%
55 | O=C(Cc1cccs1)Nn1c(Cc2cccs2)nc2ccccc2c1=O | 3.3%
56 | CC(C)(C)[C@@H]1C=C(C(=O)O)O[C@H](OCc2ccc(CO)cc2)C1 | 5.98%
57 | CN1C(C)(C)CC(=NOC(=O)c2ccccc2)CC1(C)C | -16.9%
